{"source": "patent US12583836B2", "about": "(Anaxis Pharma Pty Ltd, priority 2020, dated 2026)", "key": {"[1]": {"biological_target": "T1, RIP3 (Homo sapiens, UniProt Q9Y572)", "T1 construct": "purchased DiscoverX (KINOMEscan service); host or cells: E. coli BL21-derived (T7 phage) or HEK293", "T1 sequence (Q9Y572 whole entry)": "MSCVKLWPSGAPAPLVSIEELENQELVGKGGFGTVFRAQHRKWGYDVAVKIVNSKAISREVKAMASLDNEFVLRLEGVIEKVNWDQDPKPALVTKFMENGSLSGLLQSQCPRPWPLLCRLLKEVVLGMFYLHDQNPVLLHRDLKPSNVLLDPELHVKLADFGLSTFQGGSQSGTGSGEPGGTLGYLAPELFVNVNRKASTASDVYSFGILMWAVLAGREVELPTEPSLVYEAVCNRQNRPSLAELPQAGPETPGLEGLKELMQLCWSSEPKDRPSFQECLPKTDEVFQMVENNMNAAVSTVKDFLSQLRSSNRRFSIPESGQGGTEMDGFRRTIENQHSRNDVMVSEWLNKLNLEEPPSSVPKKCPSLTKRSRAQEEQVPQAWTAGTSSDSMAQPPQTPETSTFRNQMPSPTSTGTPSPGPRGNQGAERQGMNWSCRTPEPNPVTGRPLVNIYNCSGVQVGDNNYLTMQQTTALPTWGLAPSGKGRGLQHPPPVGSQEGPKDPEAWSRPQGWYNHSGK", "assay": "KINOMEscan binding assay, RIP3", "conditions": "equilibrium dissociation constant, class symbols", "from_the_text": "The Hill Slope was set to −1."}, "[2]": {"biological_target": "T2, RIP1 (Homo sapiens, UniProt Q13546)", "T2 construct": "purchased DiscoverX (KINOMEscan service); host or cells: E. coli BL21-derived (T7 phage) or HEK293", "T2 sequence (Q13546 1-671)": "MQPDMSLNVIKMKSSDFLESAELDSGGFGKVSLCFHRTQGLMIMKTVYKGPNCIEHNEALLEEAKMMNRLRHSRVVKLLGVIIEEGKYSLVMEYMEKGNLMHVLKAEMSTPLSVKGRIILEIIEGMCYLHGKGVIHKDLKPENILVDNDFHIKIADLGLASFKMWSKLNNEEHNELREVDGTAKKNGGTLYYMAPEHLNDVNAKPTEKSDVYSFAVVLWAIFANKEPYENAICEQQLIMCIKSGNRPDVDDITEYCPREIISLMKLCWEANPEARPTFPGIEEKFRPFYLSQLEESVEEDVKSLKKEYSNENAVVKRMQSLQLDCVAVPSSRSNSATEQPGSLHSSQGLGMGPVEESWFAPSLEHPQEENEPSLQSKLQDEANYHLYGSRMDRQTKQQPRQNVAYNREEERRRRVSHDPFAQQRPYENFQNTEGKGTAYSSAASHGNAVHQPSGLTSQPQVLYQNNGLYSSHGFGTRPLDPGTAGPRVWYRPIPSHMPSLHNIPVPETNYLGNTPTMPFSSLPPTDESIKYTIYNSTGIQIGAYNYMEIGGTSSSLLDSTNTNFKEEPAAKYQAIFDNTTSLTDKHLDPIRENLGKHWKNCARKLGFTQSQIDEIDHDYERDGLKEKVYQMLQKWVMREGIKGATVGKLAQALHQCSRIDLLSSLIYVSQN", "assay": "KINOMEscan binding assay, RIP1", "conditions": "equilibrium dissociation constant, class symbols"}}}
{"smiles": "C[C@H](Oc1cc(-c2n[nH]c(Nc3cccc(C(F)(F)F)n3)c2C(N)=O)ccc1NS(=O)(=O)CC(F)(F)F)c1ccc(F)cc1", "note": "[Compound 249, 3-{3-[(1S)-1-(4-fluorophenyl)ethoxy]-4-(2,2,2-trifluoroethane-sulfonamido)phenyl}-5-{[6-(trifluoromethyl)pyridin-2-yl]amino}-1H-pyrazole-4-carboxamide]", "values": [{"measurement": "Kd", "setting": "[1]", "result": "> 30", "unit": "µM"}, {"measurement": "Kd", "setting": "[2]", "result": "> 30", "unit": "µM"}]}
{"smiles": "NC(=O)c1c(-c2ccc(NS(=O)(=O)CC(F)(F)F)c(OCc3ccc(Cl)cn3)c2)n[nH]c1Nc1cnccn1", "note": "[Compound 262, 3-{3-[(5-chloropyridin-2-yl)methoxy]-4-(2,2,2-trifluoroethane-sulfonamido)phenyl}-5-[(pyrazin-2-yl)amino]-1H-pyrazole-4-carboxamide]", "values": [{"measurement": "Kd", "setting": "[2]", "result": "> 30", "unit": "µM"}]}
